These results are taken from PMC12136788.

Some of the results follow.

To fix the notation:
B1: chr1:71529667:71529668:-_ENSG00000132485_ENST00000254821|hu_mus|FALSE|FALSE (ssRNA)
RNA: GGGAGUUCUACAGUCCGACGAUCUUGCUGCUGAAGAGACUGUUAAAGAGAAACCUUUUAACUUUUAAACCAGAGAACAAAAUGGAUCUCAAGUGACCAGAUUUUAAUUUGAGAAAUAAAACUCCAAAAGCAUUUUAAGCCAUACAACAGAGGAUUGAGCAUCA
B2: chr4:115894766:115894767:+_ENSMUSG00000028698_ENSMUST00000030464|mus_hu|mus_mus_mus_hu_True|1_78 (ssRNA)
RNA: GGGAGUUCUACAGUCCGACGAUCUUCCACACGGAAAUGUACUUCGGGUUUUCCAACGCCAGUACAAAGUCCGGCCAAACUACCCGAACAGGGUCCUCCCCCUCUCUCCUACAGAACACAACAAAAUGCCCCCGAACCCCGAACCAACAGAGGAUUGAGCAUCA
B3: chr2:42797587:42797588:+_ENSG00000057935_ENST00000405094|hu_hu|motif|central (ssRNA)
RNA: GGGAGUUCUACAGUCCGACGAUCAUAAAAGCAUACUACUUUUGCUUCCACGUUGCCACUUGCAGUCUUGUUGAGUUCUUCGGUCCUUCUUAUUAGGUAUGGGUUGCUGGAGGAAUUCUCAAAGUAGACAUAAUCUCCGACCCGCAACAGAGGAUUGAGCAUCA
B4: chr11:87044496:87044497:-_ENSMUSG00000046442_ENSMUST00000055438|mus_hu|motif|central (ssRNA)
RNA: GGGAGUUCUACAGUCCGACGAUCUGGAAUAUCAUGAGUCUUUCUGAGCUUCCUCAUGUUUUCACUGUACCCUUUCCAACGGUUUUGCCUCCAUGGCAGAGAACUUCUUAUCCUAUUUCUCUUCCCACUUCCAGUAAGUGAGGACAACAGAGGAUUGAGCAUCA
B5: chr11:98549071:98549072:+_ENSMUSG00000017221_ENSMUST00000017365|mus_mus|FALSE|FALSE (ssRNA)
RNA: GGGAGUUCUACAGUCCGACGAUCAUCCAGCUUGUCCAGGAACUCAUAGACCCGGGCGUGAUAAUAGUAACACUUGGCAGCUACGAGGUCCAGGGCUCGGCGGUUCUGAGUGCUGAUCUUCUGCAUCAGGUCAUCAGAGAUUUUCAACAGAGGAUUGAGCAUCA
B6: chr2:9570881:9570882:+_ENSG00000119203_ENST00000238112|hu_mus|hu_hu_hu_mus_False|8_58 (ssRNA)
RNA: GGGAGUUCUACAGUCCGACGAUCACUUGUCUUCUGAAGGAACCAGGGCAGGGCUCCACAGUGAUCCAAAUGGAAAUGACUAAUUAACAGAAGGUCGAUCUCAGCUGGGUCGAUAAGGUCAAUGUAAGGAAGAGCAUCCAUUCCCAACAGAGGAUUGAGCAUCA
B7: chr7:135832113:135832114:+_ENSMUSG00000042105_ENSMUST00000118605|mus_hu|FALSE|FALSE (ssRNA)
RNA: GGGAGUUCUACAGUCCGACGAUCGCAGGAAAAAUAUAACCCCACAGGAACUUUAACCAUAAGCCCUGCAAAAAGGAGAAAAAUCUUGAAAGUCAUAGCCACAACGCCCUCAGACUUGGGCUCGGCUGCUGCGGCAGUGGCAGCCAACAGAGGAUUGAGCAUCA
B8: chr1:163117127:163117128:-_ENSG00000143248_ENST00000313961|hu_mus|hu_hu_hu_mus_False|1_68 (ssRNA)
RNA: GGGAGUUCUACAGUCCGACGAUCUGCUACAAAGGAUGUAACUCAACUCACAGGGCAACUUUUGGAAGCCUGGCUAAAUGACUACUUGAUUAGCUCCUUAUAAAAUUCAGAGCGCACAAAGCGGGGCAGAGAAUCCUUUUCCAUCAACAGAGGAUUGAGCAUCA
B9: chr12:39756943:39756944:-_ENSG00000139116_ENST00000544797|hu_mus|hu_hu_hu_mus_False|18_108 (ssRNA)
RNA: GGGAGUUCUACAGUCCGACGAUCGGUUUGGCUAUUACCCCCAAGGGAAUCCUGCAAGAGUCUUGUCAGCUUAGAGUCUCUGUAAGGGACAUGGGUGGCUCUCUUGCUCUUGUCCCCCAAGGCACUUAUUACAUUCCCAAGAGCCAACAGAGGAUUGAGCAUCA
B10: 28714194_28714314_1682_CDS_ENSMUSG00000048271_ENSMUST00000114884|mouse|control|control (ssRNA)
RNA: GGGAGUUCUACAGUCCGACGAUCAGUGAACGGUAAGGGACUCUGAGUAGGAACAGGAUGGCUGCUGUUCAGGAGCGUGGGAGGAGGCGGCGGUGGAGGAGGACUUCGCUGUUCCAAAAAAAGAUGACUGGGGAAUCUUGGUUCCAACAGAGGAUUGAGCAUCA
B11: chr6:41757443:41757444:+_ENSG00000214736_ENST00000398881|hu_mus|hu_hu_hu_mus_False|68_108 (ssRNA)
RNA: GGGAGUUCUACAGUCCGACGAUCGAACUGUCUGCUGGCAACAUCUCAGCCGACACUGGGGGAUGGGGGAACAAAAGGGGGGGGUUCAGGCAAGGAGAGGGAGUCAACUUCAGCUGCCACUCAGGUAGGAUCUUGUGGUCACAGCAACAGAGGAUUGAGCAUCA
B12: chr2:230653580:230653581:-_ENSG00000153827_ENST00000389045|hu_mus|FALSE|FALSE (ssRNA)
RNA: GGGAGUUCUACAGUCCGACGAUCAGUGAGCCAUGUUGGGAUGUUUCCUGUCAUGAUUACUAGAGGGUCUUGAAGCUGCCUAUUUGCUUUUGCUGUUAAUUUACUGUUAAUAAAUUCACUAGUUGGAAUAAUCUCCUUGCACAUCAACAGAGGAUUGAGCAUCA
B13: chr12:96663167:96663168:+_ENSG00000111145_ENST00000228741|hu_hu|FALSE|FALSE (ssRNA)
RNA: GGGAGUUCUACAGUCCGACGAUCAUGGAUCUAGAGCAUACAUUAAUCCCAGUUUCCAAAGGAAAAGAAAGAAUCAGAUCUAUAGUCAUUUAAAUAUUUCCAAUCAGCAUUUACGUAAACAAGUAUACUAAAAAUAGUAGUUUUCAACAGAGGAUUGAGCAUCA
B14: chr19:60011576:60011577:-_ENSMUSG00000040022_ENSMUST00000171986|mus_mus|motif|central (ssRNA)
RNA: GGGAGUUCUACAGUCCGACGAUCUUUUGCUGUAAACGGGUUAGUUGACUCAUAUUCAAAAUAGUCCUGCCGGUUUUCACGGAAAGCACUAGGUGAUUUCAAGUCACAUGGGCUAUCAGAUCCACCAUUGUUCAGCUUGUCAGGCAACAGAGGAUUGAGCAUCA
B15: chr11:116197844:116197845:-_ENSMUSG00000052949_ENSMUST00000100202|mus_mus|motif|central (ssRNA)
RNA: GGGAGUUCUACAGUCCGACGAUCAGCACACGCACGCACACACACACAUACACACACACAUACACACAGGUGUUCAGGCCCGGAAACAAAGUGUGCAGCCAGCACGCCAACACCAGAUGGACAGGACUAGUUCCCCAGUGGGAUCAACAGAGGAUUGAGCAUCA
B16: chr11:23762696:23762697:-_ENSMUSG00000020273_ENSMUST00000020513|mus_hu|FALSE|FALSE (ssRNA)
RNA: GGGAGUUCUACAGUCCGACGAUCACAAUAAAGGUUUUAAACGUUUCUCUUUGAAAAGAUGGUAUCUUACAGUACAUACAAAAAUACUCUGAAAAUACAUACGACUUCAUUUACAAAACACUGAAUCAACAUAUUACAAGAAUUCAACAGAGGAUUGAGCAUCA
B17: chr15:84027467:84027468:+_ENSMUSG00000022437_ENSMUST00000023071|mus_mus|FALSE|FALSE (ssRNA)
RNA: GGGAGUUCUACAGUCCGACGAUCUUUAGCCUUAAAGACCUCUCCGAUUUCACAAAUGAUGAUGUCAUCCUUAGUCCGCCCAAGUCCAUCAAAAUGAACAUGCUGAACCACCACAUCUUUGUUUUCCAGGAUUUCCUGUUUCGCCAACAGAGGAUUGAGCAUCA
B18: chr2:65331917:65331918:-_ENSG00000138069_ENST00000409751|hu_mus|FALSE|FALSE (ssRNA)
RNA: GGGAGUUCUACAGUCCGACGAUCGAAAUCCACACCAAUUGUGCUGAUGUAGCUUUCCGUAUACGUAUCAUCUGCAAACCUAAGGAGAAGGCAGGACUUUCCAACCCCAGAAUCGCCAAUCAGAAGUAACUUGAAUAAAUAAUCCAACAGAGGAUUGAGCAUCA
B19: 21271043_21271163_101_3pUTR_ENSMUSG00000001891_ENSMUST00000060895|mouse|control|control (ssRNA)
RNA: GGGAGUUCUACAGUCCGACGAUCGUUGGGGGCCUGGAAUCAGGUCUCGCACGCUGCACGAGCGUGGCCGAGGCGACCUCCCCUCCGCUCCCGUCACACGCAAACACCUGGAGCCUGGCGCCAGCGUGCGCAGCCCCUGACCCUCAACAGAGGAUUGAGCAUCA
B20: chr11:86533089:86533090:-_ENSMUSG00000047126_ENSMUST00000103186|mus_hu|FALSE|FALSE (ssRNA)
RNA: GGGAGUUCUACAGUCCGACGAUCACGCUGCAGUAGGCCAGCCUUUUCACACAGUUGAGCAAUAUGAGCCCGGUCAUAAUGUGUGAACAUCUGAUUGCCUAGAAUAGCAUCUGCAACUUGAGGCGCAUGCAUAAGGUUCAUCUCCAACAGAGGAUUGAGCAUCA
B21: chr14:78183846:78183847:+_ENSG00000119705_ENST00000557342|hu_hu|hu_hu_hu_mus_False|1_38 (ssRNA)
RNA: GGGAGUUCUACAGUCCGACGAUCUCUCAGAAAUCUUUCUUCAUCAGAUGUUUGAGCUCCGUGCAAAGCCUUUGCUCUUUGAGCUUGAACGUGGAUCUUUACUCCAUAAAGCACUGUCAGAAAAGGUAAUUUUUUUUUCCGAAGCAACAGAGGAUUGAGCAUCA
B22: 31639799_31640545_924_3pUTR_ENSMUSG00000024037_ENSMUST00000171171|mouse|control|control (ssRNA)
RNA: GGGAGUUCUACAGUCCGACGAUCAGCACAAACUGGUCAUCAGGACUCACAGCCACGUCUAGCAGCAUGGAGAGGUGCCCAAGCUCCAGCCUGCCACAUCCAUCUGGCUCCAGCACCGAAAAGGAGUAGACGUCUCCAGACUUGCAACAGAGGAUUGAGCAUCA

The target of this experiment is T1, UNK ZnF1-3 (human, UniProt Q9C0B0 31-174).
T1 sequence: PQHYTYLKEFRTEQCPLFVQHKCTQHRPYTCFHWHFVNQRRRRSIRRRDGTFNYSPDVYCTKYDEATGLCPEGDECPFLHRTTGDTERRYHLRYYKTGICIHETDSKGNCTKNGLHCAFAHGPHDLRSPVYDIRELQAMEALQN
Kind of experiment: nsRBNS (natural sequence RNA bind-n-seq); RBNS binding buffer (assumed for nsRBNS): 25 mM Tris pH 7.5, 150 mM KCl, 3 mM MgCl2, 0.01% Triton X-100, 500 ug/ml BSA, 20 U/ml SUPERase-In, 4 C; UNK is unkempt and MSI1 is Musashi-1; names of the RNAs are library labels; protein concentration not given here; high values mean tight binding.
On to B1, for which the binding signal is 1.86 enrichment R. The molecule B2 showed a binding signal of 1.03 enrichment R. In the case of B3, the binding signal is 0.932 enrichment R. For the molecule B4, the binding signal was 0.46 enrichment R. In the case of B5 it was 0.933 enrichment R. In the case of B6 it was 1.88 enrichment R. Take B7: the binding signal was 1.14 enrichment R. Molecule B8 had a binding signal of 1.24 enrichment R.

The molecule B9 gave a binding signal of 0.579 enrichment R. In turn, B10 registered a binding signal of 1.71 enrichment R. The result for B11 reads 2.1 enrichment R; that for B12, 0.899 enrichment R; that for B13, 0.59 enrichment R.

B14 returned a binding signal of 0.688 enrichment R.

B15 returned a binding signal of 2.17 enrichment R. The result for B16 reads 0.65 enrichment R. The result for B17 reads 0.847 enrichment R; that for B18, 1.33 enrichment R; that for B19, 0.613 enrichment R. Take B20: the binding signal was 0.887 enrichment R. Consider B21, for which the binding signal worked out at 0.875 enrichment R. In the case of B22 it was 1.39 enrichment R.
